The source gives no read counts; variants with many changes may rest on few reads.
B1: LINE1-full (parent)
chain: UACGUAGGUGGUUUUCCCCUGAUAGUGCUAAGGGGGCCUGGAAGUUUGGACUGGGCAGAGCUCAACACAGCGUGGCAAAGUGGCUGUGGCUAGACUGCCUCUCUGGAUUCCUCGUCACUCAGCAGGGCAUCUCUGAGAGAAAUGCC

Variants of: B1
Test: self-cleavage, relative activity (ratio to wild type); higher = more cleavage; in vitro, sequencing; the parent is a self-cleaving ribozyme

Row | Variant | self-cleavage
1 | UACGUAGGUGGCUUUCCCCUGAUAGUGCUAAGGGGGCCUGGAAGUUUGGACUGGGCAGAGCUCGGCACAGCGUGGCGAAGUGGCUGUGGCUAGACUGCCUCUCUGGAUUCCUCGUCACUCAGCAGGGCAUCUCUGAGAGAAAUGCC | 0
2 | UACGUAGGUGGCUUUCCCCUGAUAGUGCUAAGGGGGCCUGGAAGUUUGGACUGGGCAGAGCUCGACACUGCGUGGCAAAGUGGCUGUGGCUAGACUGCCUCUCUGGAUUCCUCGUCACUCAGCGGGGCAUCUCUGAGAGAAAUGCC | 0.16
3 | UACGUAGGUGGCUUUCCCCUGAUAGUGCUAAGGGGGCCUGGAAGUUUGGACUGGGCAGAGCUCGACACAGCGUGGCUAAGUGGCUGUGGCUAGACUGCCUCUCUGGAUUCCUCGUCACUCGGCAGGGCAUCUCUGAGAGAAAUGCC | 0.63
4 | UACGUAGGUGGCUUUCCCCUGAUAGUGCUAAGGGGGCCUGGAAGUUUGGACUGGGCAGAGCUCGACACAGCGUGGCAAUGUGGCUGUGGCUAGACUGCCUCUCUGGAUUCCUCGUCACUCAGCAGGGCAUCUCUGAGAGAAAUGCC | 0.55
5 | UACGUAGGUGGCUUUCCCCUGAUAGUGCUAAGGGGGCCUGGAAGUUUGGACUGGGCAGAGCUCGACACAGCGUGGCAAAGUGGCUGUGGCUAGACUGCCUCUCUGGAUUCCUCGUCACUCAGUAGGGCAUCUCUGAGAGAAAUGCC | 0.32
6 | UACGUAGGUGGCUUUCCCCUGAUAGUGCUAAGGGGGCCUGGAAGUUUGGACUGGGCAGAGCUCGACACAGCAUGGCAAAGUGGCUGUGGCUAGACUGCCUCUCUGGAUUCCUCGUCACUCAGCAGGGCAUCUCUGAGAGAAAUGCC | 0.42
7 | UACGUAGGUGGCUUUCCCCUGAUAGUGCUAAGGGGGCCUGGAAGUUUGGACUGGGCAGAGCUCGACACAGCGUGGCAAAGUGGCAGUGGCUAGACUGCCUCUCUGGAUUCCUCGUCACUCAGCAGGGCAUCUCUGAGAGAAAUGCC | 0.27
8 | UACGUAGGUGGCUUUCCCCUGAUAGUGCUAAGGGGGCCUGGAAGUUUGGACUGGGCAGAGCUCACCACAGCGUGGCAAAGUGGCUGUGGCUAGACUGCCUCUCUGGAUUCCUCGUCAAUCAGCGGGGCAUCUCUGAGAGAAAUGCC | 0.06
9 | UACGUAGGUGGCUUUCCCCUGAUAGUGCUAAGGGGGCCUGGAAGUUUGGACUGGGCAGAGCUCAGCACAGCGUGGCAAAGUGGCUGUGGCUAGACUGCCCCUCUGGAUUCCUCGUCACUCAGCAGGGCAUCUCUGAGAGAAGUGCC | 0
10 | UACGUAGGUGGCUUUCCCCUGAUAGUGCUAAGGGGGCCUGGAAGUUUGGACUGGGCAGAGCUCAACGCAGCGUGGCAAAGUGGCUGUGGCUAGACUGCCUCUCUGGAUUCCUCGUCACUCUGCAGGGCAUCUCUGAGAGAAAUGCC | 0.92
11 | UACGUAGGUGGCUUUCCCCUGAUAGUGCUAAGGGGGCCUGGAAGUUUGGACUGGGCAGAGCUCAACGCAGCAUGGCAGAGUGGCUGUGGCUAGACCGCCUCUCUGGAUUCCUCGUCACUCAGCAGGGCAUCCCUGAGAGAAAUGCC | 0.14
12 | UACGUAGGUGGCUUUCCCCUGAUAGUGCUAAGGGGGCCUGGAAGUUUGGACUGGGCAGAGCUCAACUCGGCGUGGCAAAGUGGCUGUGGCUAGACUGCCUCUCUGGAUUCCUCGUCACUCAGCAGGGCAUCUCUGAGAGAAAUGCC | 0.1
13 | UACGUAGGUGGCUUUCCCCUGAUAGUGCUAAGGGGGCCUGGAAGUUUGGACUGGGCAGAGCUCAACUCAGCGUGGCAAAGUGGCUGUGGCUAGACUGCCUCUCUGGAUUCCUCGUCACUCAGCAGGGCAUCUCAGAGAGAAAUGCC | 0.02
14 | UACGUAGGUGGCUUUCCCCUGAUAGUGCUAAGGGGGCCUGGAAGUUUGGACUGGGCAGAGCUCAACACGGCGUGGCAAAGUGGCUGUGGCUGGACUGCCUCUCUGGAUUCCUCGUCACUCAGCAGGGCAUCUCUGAGAGAAAUGCC | 0
15 | UACGUAGGUGGCUUUCCCCUGAUAGUGCUAAGGGGGCCUGGAAGUUUGGACUGGGCAGAGCUCAACACUGCGUGGCAAGGUGGCUGUGGCUAGACUGCCUCUCUGGAUUCCUCGUCACUCAGCAGGGCAUCUCUGAGAGGAAUGCC | 0.04
16 | UACGUAGGUGGCUUUCCCCUGAUAGUGCUAAGGGGGCCUGGAAGUUUGGACUGGGCAGAGCUCAACACUGCGUGGCAAAGUGGCUGUGGCUAGACUGCCUCUCUGGAUUCCCCGUCACACAGCAGGGCAUCUCUGAGAGAAAUGCC | 0.15
17 | UACGUAGGUGGCUUUCCCCUGAUAGUGCUAAGGGGGCCUGGAAGUUUGGACUGGGCAGAGCUCAACACAGCGUGGCGAAGUGGCUGUGGCUAGACUGCUUCUCUGGAUUCCUCGUCACUCAGCAGGGCAUCUCUGAGAUAAAUGCC | 1.28
18 | UACGUAGGUGGCUUUCCCCUGAUAGUGCUAAGGGGGCCUGGAAGUUUGGACUGGGCAGAGCUCAACACAGCGUGGCGAAGUGGCUGUGGCUAGACUGCCUCUCUGGAUUCCUCGUCACUCAGCAGGGUAUCUCUGAGAGAAAUGCC | 1.43
19 | UACGUAGGUGGCUUUCCCCUGAUAGUGCUAAGGGGGCCUGGAAGUUUGGACUGGGCAGAGCUCAACACAGCGUGGCGAAGUGGCUGUGGCUAGACUGCCUCCCUGGAUUCCUCGUCACUCAGCAGGGCAUCUCUGAGAGAAAUGCC | 2.4
20 | UACGUAGGUGGCUUUCCCCUGAUAGUGCUAAGGGGGCCUGGAAGUUUGGACUGGGCAGAGCUCAACACAGCGUGGCGAAGUGGCUGUGGCUAGACUGCCUCUCUGGAUUCCCCGUCACUCAGCAGGGCAUCUCCGAGAGAAAUGCC | 1.31

Reference: the RNAGym collection of RNA variant scans (doi:10.7554/elife.90254)
